Test results taken from the RNAGym collection of RNA variant scans (doi:10.1093/nar/gkz1192).
The source gives no read counts; variants with many changes may rest on few reads.

B1: CPEB3 Ribozyme (parent)
chain: UAACAGGGGGCCACAGCAGAAGCGUUCACGUCGCAGCCCCUGUCAGAUUCUGGUGAAUCUGCGAAUUCUGCUGUAUAUCUC

Variants of: B1
Test: self-cleavage, relative activity (ratio to wild type); higher = more cleavage; in vitro, sequencing
Procedure, shortened: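 Libraries of CPEB3 self-cleaving ribozyme mutants came from rounds of error-prone PCR and carried barcodes, which DNA sequencing matched to variants. In vitro transcription used T7 RNA polymerase at 37°C for 5 hours, with a further 15 min in DNase I before EDTA stopped the reaction; the ribozymes cleaved during both steps. The RNA was reverse transcribed with template switching and sequenced on Illumina. Relative activity is the cleaved/total read fraction of a variant divided by that of the unmutated ribozyme, averaged over three batches with at least 5 reads.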

Variant	self-cleavage
A15C A18U A21G A64G U72C	0.37
A15C A18U A21G U51A G73C	0.38
A15C A18U C38U U58C	0.05
A15C A18U C39U C50A	0.22
A15C A20G A21G A45U	0.09
A15C A20G A21G U26C A35G A64G	0.5
A15C A20G C23U A28G A64G	0.04
A15C A20G G52C U80A	0.75
A15C A20G U60C U69A	0.23
A15C A20G U69C U78C	0.2
A15C A20U A28U U41A U43C A47G U72C	0.06
A15C A21G A28U U41A	0.34
A15C A21G A45U	0.23
A15C A21G A45U U60A	0.22
A15C A21G C39G A56U U72C	0.25
A15C A21G G24A G52C U60C U67C	0.1
A15C A21G G33A A64G U80C	0.05
A15C A21G G33A U43A U76C	0.14
A15C A21U U25C A56G	0.54
A15C A21U U26A A28C A45C G73U	0.06
A15C A21U U60A U78C	0.07
A15C A28G A45G	0.15
A15C A28G C62U	0.09
A15C A28U A64G	0.35

Variant	self-cleavage
A15C A28U U41A U43A C62G	0.08
A15C A28U U41G U69G	0.04
A15C A28U U80A	0.94
A15C A35G U43A A45U U54A U76A	1.2
A15C A35G U58C	0.48
A15C A45G A64G A77U	0.32
A15C A45G U48C U51A	0.23
A15C A45U A56U	0.13
A15C A47G U72C	1.03
A15C A47G U78C	1.12
A15C A56G A65U	0.19
A15C A57G U72C	0.71
A15C A64G U74A	0.79
A15C A64G U80A	0.5
A15C C17A U43C U80C	0.06
A15C C17U A18G	0.1
A15C C17U U43C G63A A77G	0.16
A15C C23U U31A U41C U43C C50U U78C	0.04
A15C C23U U41G U67C A75U	0.08
A15C C29G U43C U51C	0.21
A15C C29U U48C	0.3
A15C C29U U58C	0.14
A15C C32U C39G U78C	0.06
A15C C38U U58C	0.15

Variant	self-cleavage
A15C G16A U26C A47U U51A	0.12
A15C G24A A28G C34G	0.41
A15C U25A A45U U54A U60C	0.09
A15C U25A A47U U51A A64U	0.06
A15C U25A U51C A56G	0.1
A15C U25A U60G	0.31
A15C U25C A28G U67C	0
A15C U25C A28U U43A	0.08
A15C U25C C32A A47U U58C U66A	0.18
A15C U25C C34G U78C	0.1
A15C U25C U26C A28G U69C	0.25
A15C U25C U26C U66C	0.06
A15C U25C U66C	0.08
A15C U25C U78C	0.28
A15C U26A A28U C32U	0.26
A15C U26A C38G	0.23
A15C U26C C38G U41G U49C C62G	0.35
A15C U26C U43C A45G C62U U66C U67C	0.09
A15C U26C U48C U74C A75U	0.1
A15C U26C U69C	0.04
A15C U26C U80C	0.35
A15C U31A C32U	0.12
A15C U31C G36U	0.04
A15C U31C U67C	0.22

Variant	self-cleavage
A15C U41A U54C	0.38
A15C U41C A45G U72C	0.88
A15C U41C C44U C62A U80A	0.31
A15C U43A U69C U78C	0.28
A15C U43C A45G A65C A77C U78G	0.09
A15C U48C U60C	0.04
A15C U49C A56G U80C	1.16
A15C U49C U72C U78C	0.45
A15C U49C U74G A77U	0.64
A15C U51A G53C	0.8
A15C U51A U67C	0.16
A15C U51C U74A	0.99
A15C U54C U58A A77U	0.14
A15G A18C A57G	0.08
A15G A18C U26A U49A A56U A57G	0.26
A15G A18C U43C G46A U48C U60C	0.23
A15G A18C U60C	0.07
A15G A18G A20G U43C A45U U48A	0.11
A15G A18G A21G G22A A35G G61A U72C	0.09
A15G A18G A21G U54A U58C	0.06
A15G A18G A21G U58C U67A U69A	0.14
A15G A18G A21U C23U U26A A35U	0.04
A15G A18G A28G U31A U54C	0
A15G A18G A28G U54G	0.53

Variant	self-cleavage
A15G A18G A35G A56G	0.15
A15G A18G A35G U41A U54A U60C U69C	0.47
A15G A18G A45G G53A U60C	0.46
A15G A18G A47G U67C U80C	0.32
A15G A18G A56G U76C	0.16
A15G A18G A56U U67A	0.12
A15G A18G A57U U58C U67C	0.07
A15G A18G C27A U41C A56G	0.22
A15G A18G C37A U69C	0.15
A15G A18G C40U U72C	0.64
A15G A18G G33A U58A A64U U78A U80C	0.06
A15G A18G G55U U69A U80A	0.12
A15G A18G U25C U80C	0.08
A15G A18G U26A U41A U54A A64G U74A	0.07
A15G A18G U31C U41A U49C	0.15
A15G A18G U41A A45U U48A G53A U72C	0.37
A15G A18G U41C A65U U69A	0.09
A15G A18G U43C A56U U69C	0.09
A15G A18G U48C	0.21
A15G A18G U49C	0.12
A15G A18G U54C A77C	0.18
A15G A18G U60C U76A	0.11
A15G A18G U66A	0.32
A15G A18G U72A	0.1

Variant	self-cleavage
A15G A18U A20G	0.14
A15G A18U A21G U26A U41A A57G U58A	0.06
A15G A18U A21G U31A A57G U80C	0.1
A15G A18U A21G U67C U74C	0.2
A15G A18U A28C A45G U60C U67A U74C	0.09
A15G A18U A35G	0.34
A15G A18U A35U U58C A77G	0.09
A15G A18U A45G U74G	0.24
A15G A18U C23U A47C A56G U60A A65U	0.02
A15G A18U C32A A35G U41A	0.06
A15G A18U C32U A35G U58C	0.17
A15G A18U C37U A45C U67A	0.18
A15G A18U C39A G46U	0.06
A15G A18U U26C U51A A57C U67C	0.06
A15G A18U U41C U48A U54A	0.08
A15G A18U U43C	0.38
A15G A18U U43C A64G A65G U69C	0.11
A15G A18U U43C U51C	0.28
A15G A18U U48C	0.15
A15G A18U U49C U54C A64U	0.16
A15G A18U U51C	0.16
A15G A18U U60A	0.15
A15G A18U U74C	0.35
A15G A20C U31C	0.43

Variant	self-cleavage
A15G A20C U41A U51A	0.36
A15G A20C U80C	0.47
A15G A20G A21G U41C A56G	0
A15G A20G A21U A28G G53C U76C U78C	0.03
A15G A20G A28G U31A	0.11
A15G A20G A28G U60C A65G	0.26
A15G A20G A35G A47G G55A U72A U74A	0.09
A15G A20G A35G G61A U80C	0.08
A15G A20G A45G G61A	0.21
A15G A20G A47G A56G U72A	0.24
A15G A20G A47G U69A	0.14
A15G A20G A56U U60C A64U	0
A15G A20G A57G	0.3
A15G A20G C34U A45G A56G U74C	0.22
A15G A20G C38U U78C U80C	0.23
A15G A20G C40U	0.26
A15G A20G C40U A45U G46A	0.12
A15G A20G C50A G55U	0.76
A15G A20G U25C	0.61
A15G A20G U25C A28U	0.41
A15G A20G U25C A28U U67C	0.51
A15G A20G U25C C44U	0.03
A15G A20G U25C C59A A65G	0.33
